Measurements published in ChEMBL document CHEMBL1201862, “PubChem BioAssay data set” (2004).
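All cell lines were grown in 96-well plates and treated with compound for 48 hours. GI50 is the concentration that inhibits growth by half.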 Active and inactive are the calls of the source. Rule as the data show it: active = GI50 up to about 1.1 µM and inactive = higher.

The compounds below were run on NCI-H322M (assay: inhibition of tumour cell growth, NCI panel, 48 h).

SMILES | GI50
CC1NC(/C(=C/c2ccccc2O)NC(=O)c2ccccc2)OC1=O (stereo unspecified) | inactive: > 50 µM
CC(C)(Br)C(=O)/C=C/c1ccccc1 | inactive: 20 µM
CCOc1cc(NC(C)=O)ccc1C(=O)NN1C(=O)C(Cl)C1c1ccccc1 (stereo unspecified) | inactive: 14.1 µM
COC1CC(OC2C(C)OC(OC3C(C)OC(OC4C(C)OC(O[C@H]5CC[C@@]6(C)C(=CC[C@]7(O)[C@@H]6C[C@@H](OC(=O)/C=C(\C)C(C)C)[C@@]6(C)[C@]7(O)CC[C@@]6(O)C(C)=O)C5)CC4OC)CC3OC)CC2OC)OC(C)C1O (stereo partly specified) | inactive: > 12.5 µM
N#C/N=C(/N)NCO | inactive: > 100 µM
CC(=O)Nc1ccccc1S(=O)(=O)c1c(-c2c(C)c(Cl)c(C)c(Cl)c2C)noc1C | inactive: 75.7 µM
NC1=C(N2CCOCC2)C(=O)NC2=N/C(=C\c3ccccc3)C(=O)N21 | inactive: > 100 µM
O=C(CN(c1ccccc1)c1ccccc1)n1nnc2ccccc21 | inactive: 97.7 µM
CCCCCn1c(=O)c2c(=O)[nH][nH]c2c2ccccc21 | inactive: > 100 µM
CC(C)c1ccccc1NC(=O)CCc1n[nH]c(=S)o1 | inactive: > 100 µM
[N-]=[N+]=NC1CC(n2cc(COCC(F)(F)F)c(=O)[nH]c2=O)OC1CO (stereo unspecified) | inactive: > 100 µM
C#CC[C@]12CC(=O)CC[C@H]1CC1(C2)OCCO1 | inactive: > 100 µM
COc1ccccc1NC(=O)C1=C(C)NC(C)=C(C(=O)Nc2ccccc2OC)C1c1ccccc1[N+](=O)[O-] | inactive: 39.9 µM
Cc1ccc(C#CS(=O)(=O)C(F)(F)F)cc1 | inactive: > 100 µM
COC(CNC(=O)CNC(=O)c1ccc(C(F)(F)F)cc1)OC | inactive: > 100 µM
C=CCN(c1cc(OC)c2[nH]c(C(=O)O)c(C)c2c1[N+](=O)[O-])S(C)(=O)=O | inactive: > 100 µM
CC(=O)Nc1ccc(/C=C(\NC(=O)c2ccccc2)C(=O)NNS(=O)(=O)c2ccc(C)cc2)cc1 | inactive: > 100 µM
N=c1oc2ccc(Cl)cc2cc1C(=O)NCc1ccccc1 | inactive: > 100 µM
CC12O[Te]34OC1(C)C(C)(O3)C2(C)O4 | inactive: 12.5 µM
S=c1nc2[nH]c3ccc(Br)cc3c2n[nH]1 | inactive: 84.5 µM
COc1ccccc1CNCc1nc2ccccc2[nH]1 | inactive: > 100 µM
C=C1C(=O)OC2C1CC1OC2C(C)CCC/C(C)=C\CCC1(C)O (stereo unspecified) | inactive: 37.8 µM
CC(=O)Oc1ccc2c(c1)oc1c3ccc(OC(C)=O)cc3n(C)c(=O)c21 | inactive: 11.6 µM

SMILES | GI50
COC(=O)[C@]12CC=C3O[C@@H]4OC5(CCCCC5)O[C@@H]4[C@H]3C1C(=O)C=CC2=O (stereo partly specified) | inactive: 20.9 µM
O=c1cnnc2sc(=S)[nH]n12 | inactive: > 100 µM
COC(=O)/C(C#N)=C1\CCC(OC)N1 (stereo unspecified) | inactive: > 100 µM
Cc1csc(NNC(N)=O)n1 | inactive: > 100 µM
Cn1c(=O)[nH]n(-c2ccc3ccccc3c2)c1=O | inactive: > 100 µM
CSC1(C)C(=O)Nc2c(OCc3ccccc3)cc([N+](=O)[O-])cc21 (stereo unspecified) | inactive: 36.1 µM
Nn1c(S)nnc1COc1cccc(OCc2nnc(S)n2N)c1 | inactive: > 100 µM
S=C(Nc1ccccc1)c1ccc(CN2CCCCC2)s1 | inactive: 28.6 µM
CC1=Nc2ccccc2C12C(c1ccccc1)C(c1ccccc1)C(=O)N1c3ccccc3CC12 (stereo unspecified) | inactive: > 100 µM
C1=C[C@]2(CCC13OCCO3)COc1ccccc12 | inactive: 44.7 µM
COc1ccc(C2=C(Cl)C(=O)O/C2=C\c2ccc(OC)c(Br)c2)cc1Cl | inactive: > 100 µM
c1ccc(SC2CCSc3ccccc3C2Sc2ccccc2)cc1 (stereo unspecified) | inactive: > 100 µM
O=C(CC1(O)C(=O)Nc2ccccc21)c1ccc(O)cc1O (stereo unspecified) | inactive: > 100 µM
O=C1OS2(OCc3cccc4cccc2c34)c2ccccc21 (stereo unspecified) | inactive: > 100 µM
Cc1cc(N)c2cc(NC(=O)CCCCCCCCC(=O)Nc3ccc4nc(C)cc(N)c4c3)ccc2n1 | inactive: 58.6 µM
CC1=CC2CC(C)C1(C)CCc1ccoc12 (stereo unspecified) | inactive: > 100 µM
CC(=O)OCC1=C(C(=O)O)N2C(=O)C(NC(=O)CSc3ccncc3)C2SC1 (stereo unspecified) | inactive: > 100 µM
Cc1c(O)c(OC2OC(CO)C(O)C(O)C2O)cc2c1CC[C@@H]1C2(C)C(=O)C[C@]2(C)[C@@H]([C@@](C)(O)C(O)/C=C/C(C)(C)O)[C@H](O)C[C@@]12C (stereo partly specified) | inactive: > 100 µM
C=C1C(=O)C23CC1C[C@H](OC(C)=O)[C@H]2C1(C)C(OC(C)=O)C[C@H](O)C(C)(C)[C@H]1C(=O)[C@@H]3OC(C)=O (stereo partly specified) | inactive: 15.1 µM
COCC1N=C(c2cc(OC)c(OC)c(OC)c2-c2cc3c(cc2C2OCCCO2)OCO3)O[C@H]1c1ccccc1 (stereo partly specified) | inactive: > 100 µM
COc1ccc2[nH]c3ccc4cc[n+](CCN5CCC(C6CCN(CC[n+]7ccc8ccc9[nH]c%10ccc(OC)cc%10c9c8c7)CC6)CC5)cc4c3c2c1 | inactive: 19.5 µM
Cc1cn([C@@H]2C[C@H](CO)[C@@H](O)C2)c(=O)[nH]c1=O | inactive: > 100 µM
c1ccc2c(c1)[nH]c1c2ncc2[nH]c3ccccc3c21 | inactive: 2.52 µM
